Over roughly 33,000 sequences, “E-score (-0.5 to 0.5)” has its median near -0.056; the highest 2% begin near 0.38. The list shows a part of the results.
Target: Stb4 (UniProt P50104)
Test: PBM E-score (8-mer binding enrichment) (E-score (-0.5 to 0.5)); higher = stronger / more preferred TF binding; most listed sequences are background and not binding sites
Conditions: protein concentration: 200 nM; construct: GST-DNA-binding domain
Protocol: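 Universal 'all 10-mer' protein binding microarrays (Agilent AMADID 015681) probed with GST-tagged S. cerevisiae TFs (full-length or DBD) made by in vitro transcription/translation (PURExpress), about 100-200 nM. Bound TF was detected with fluorescent anti-GST. Each ungapped 8-mer (which stands for itself and its reverse complement) is scored by the PBM enrichment score (E-score), a modified Wilcoxon-Mann-Whitney statistic from -0.5 to +0.5, computed with the Universal PBM Analysis Suite. Scale: above 0.35 generally sequence-specific binding.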

Row | Sequence | PBM E-score
1 | GCGGGTAC | 0.222
2 | ACAACACA | -0.242
3 | CAACCGAA | 0.289
4 | AGAATGGC | -0.0824
5 | AGGTCGCA | -0.0675
6 | GTTTCAAA | -0.0833
7 | AGGAGGGA | -0.146
8 | AGATAAAT | -0.0431
9 | GACACCAC | 0.0163
10 | AATGTAGC | -0.113
11 | ACATACTC | -0.0299
12 | ACGGCAGC | 0.15
13 | CGTAGTGA | -0.114
14 | ACAGAGAT | -0.171
15 | CACGCACG | 0.0233
16 | ATTTTGCC | 0.065
17 | ATTGGGTG | -0.0143
18 | TGCAGTAA | -0.0856
19 | ACCGTGGG | -0.0643
20 | CATCGTGG | -0.171
21 | ACTAGGCA | -0.149
22 | GTCCGGAA | 0.373
23 | CCACCTGA | -0.068
24 | ACGGCCTG | -0.0276
25 | GGAACGCC | 0.194

Row | Sequence | PBM E-score
26 | AACACCGC | -0.0207
27 | AAAATCAA | 0.0231
28 | AGTTCGGA | 0.442
29 | TGTCTTAA | -0.0591
30 | ATCACTAC | -0.145
31 | ATTTGCAA | 0.0378
32 | CAGGCGGA | 0.206
33 | GTCACTCA | 0.0365
34 | TAAAGAGA | -0.168
35 | GCAATCTA | -0.0486
36 | ACTGCGTG | -0.279
37 | CAGCGATC | -0.072
38 | TGATAACA | -0.179
39 | GCAGCTCA | -0.125
40 | AATACCCC | 0.153
41 | CGCCTCAG | -0.12
42 | ATTTGATC | 0.0782
43 | CCTAGAAC | 0.0038
44 | CCTATCTA | -0.203
45 | ATGGAATA | 0.054
46 | AAAACCAG | -0.0696
47 | ATCCGTCG | 0.368
48 | TAATCCCA | -0.0875
49 | GATTGGAC | -0.0333
50 | GAACTGAC | 0.064

Row | Sequence | PBM E-score
51 | CTGGTCTC | -0.244
52 | ACCCATTG | -0.126
53 | ACGTTGCC | 0.00451
54 | GCAACCAC | -0.0721
55 | AGTTGGAG | -0.269
56 | CCACTAAA | -0.14
57 | ACAACGCA | -0.0967
58 | AATATCTC | 0.00887
59 | ACAGAGCA | 0.00639
60 | ACTCATTA | -0.255
61 | GTCCTCGA | -0.228
62 | ATATTGCG | 0.157
63 | ACGGTGAT | -0.251
64 | AGCAACAA | -0.125
65 | CAACGCGC | 0.00145
66 | CTATTAAG | -0.205
67 | TCACGGAA | 0.389
68 | AGCCGCCA | 0.113
69 | CGGGCTCA | 0.0437
70 | AAGCATCC | 0.27
71 | ATTGGAAA | -0.136
72 | AGTAAAAT | -0.186
73 | TATCAATA | -0.131
74 | AACCACAC | -0.0263
75 | GTACCTTA | -0.0101

Row | Sequence | PBM E-score
76 | CAATGCAA | -0.0844
77 | GCCTAACA | -0.105
78 | CTGACAGA | -0.0381
79 | CGGAGACC | 0.205
80 | ATGTCCCG | 0.352
81 | CACTGGCG | -0.162
82 | GGGCCTAC | -0.0886
83 | CCTACAAA | 0.0311
84 | GCACCACC | 0.00724
85 | ACCCGAGA | 0.472
86 | CGGTGAGA | -0.00483
87 | AGACCCGG | 0.305
88 | ACTGTGCT | -0.196
89 | CAATACAC | -0.105
90 | GACGACAA | 0.183
91 | AAACGCTA | -0.194
92 | GTGTTACA | -0.0391
93 | AGGCGATA | -0.166
94 | GCCGTAGC | -0.0407
95 | CGTCAGAG | -0.169
96 | AAGTAAAA | -0.0223
97 | AATCCAAG | -0.12
98 | TCCGGACA | 0.322
99 | TACCTATA | -0.303
100 | ACTGACTA | -0.198

Row | Sequence | PBM E-score
101 | AAGCCGAA | 0.407
102 | GTTTAATA | -0.13
103 | ACCTCTAT | -0.105
104 | CGCCGCCA | 0.0468
105 | CCGTACCC | 0.214
106 | AAAACCTA | 0.043
107 | CAAATGTG | 0.15
108 | AGGGAGAT | -0.24
109 | AAGTGAAC | -0.136
110 | ACAAAAGC | -0.101
111 | GTGCTCCA | -0.225
112 | ATGATACC | 0.0572
113 | AACGCTGC | -0.176
114 | GCTCGTAA | -0.0667
115 | GCCACTAA | -0.193
116 | ACTCGGCA | 0.428
117 | GCACACAA | -0.0776
118 | AAGTGTCA | -0.233
119 | CAGGGCAC | -0.15
120 | GCAGTACC | 0.094
121 | ATCTGTAG | 0.00216
122 | TACACGGA | 0.229
123 | GCCACAGC | -0.0704
124 | AAGCGACG | -0.0432
125 | AACTCAAA | 0.00363

Row | Sequence | PBM E-score
126 | GTAGGTGA | -0.139
127 | CGTAAGCC | -0.0615
128 | TCAGATGA | -0.133
129 | AGTAATAG | -0.191
130 | AGGGGCCA | -0.106
131 | CGATGGCC | -0.0191
132 | CTCGACTA | -0.177
133 | CCGGTAAG | 0.286
134 | TAACGCGA | -0.183
135 | GCGCTCTA | -0.169
136 | GATCGCGA | 0.0153
137 | TGACGAAA | -0.207
138 | CTGTACAA | -0.101
139 | TACGGAGA | 0.0409
140 | TATCTAAA | 0.0428
141 | AGATTGTA | -0.149
142 | AAAAAGCC | 0.186
143 | ATGGGGAG | -0.169
144 | GGTTTCGA | 0.0115
145 | CGACATAG | -0.191
146 | TGGCATAA | -0.035
147 | GGGGCGAC | -0.162
148 | CGTACGCA | -0.101
149 | TCCTGCAA | -0.127
150 | CTGGAGAC | -0.167

Row | Sequence | PBM E-score
151 | TGACTGCA | -0.125
152 | AAAGGACG | -0.0909
153 | AAAAATTG | 0.0569
154 | TAGAAGAA | -0.0359
155 | CGCCATAC | 0.0506
156 | AGTTTTAT | 0.0949
157 | CCGAAGTA | 0.418
158 | CAAATAAC | -0.0404
159 | AATCAACT | 0.0423
160 | CGTTCTTA | 0.132
161 | CAATGCCA | -0.241
162 | ACATCGCC | 0.0301
163 | AACCATTC | 0.0661
164 | AAAACGTC | 0.021
165 | CACATCGC | -0.191
166 | TATGTACA | -0.166
167 | GTCAAAAC | -0.0364
168 | GATAGTAA | 0.0726
169 | AGGCCCGC | 0.0202
170 | AAAGCCAC | -0.21
171 | CCCACTAG | -0.0405
172 | GTGAGCTA | -0.202

Reference: the supplement of paper PMC3334620
